In PubChem BioAssay AID504339 (National Center for Advancing Translational Sciences (NCATS), 2011):
Among all 390,000 compounds or so, about 17,000 (4.4%) were called active. Inconclusive means that the source gave no clear call. Such entries were picked first, then a sample of the others. The call rests on the fitted dose curve; in most records, active means well fitted inhibition curve with a large enough effect; inconclusive means small, poorly fitted or top-dose-only effect; inactive means no such curve, though single readings can be large or run the other way. A potency beside an inconclusive call is a rough fit, not a confirmed value.

Molecular target: Lysine-specific demethylase 4A (Homo sapiens) (UniProt O75164)
Chain of UniProt O75164 (O75164 whole entry, looked up, the tested form may be a part): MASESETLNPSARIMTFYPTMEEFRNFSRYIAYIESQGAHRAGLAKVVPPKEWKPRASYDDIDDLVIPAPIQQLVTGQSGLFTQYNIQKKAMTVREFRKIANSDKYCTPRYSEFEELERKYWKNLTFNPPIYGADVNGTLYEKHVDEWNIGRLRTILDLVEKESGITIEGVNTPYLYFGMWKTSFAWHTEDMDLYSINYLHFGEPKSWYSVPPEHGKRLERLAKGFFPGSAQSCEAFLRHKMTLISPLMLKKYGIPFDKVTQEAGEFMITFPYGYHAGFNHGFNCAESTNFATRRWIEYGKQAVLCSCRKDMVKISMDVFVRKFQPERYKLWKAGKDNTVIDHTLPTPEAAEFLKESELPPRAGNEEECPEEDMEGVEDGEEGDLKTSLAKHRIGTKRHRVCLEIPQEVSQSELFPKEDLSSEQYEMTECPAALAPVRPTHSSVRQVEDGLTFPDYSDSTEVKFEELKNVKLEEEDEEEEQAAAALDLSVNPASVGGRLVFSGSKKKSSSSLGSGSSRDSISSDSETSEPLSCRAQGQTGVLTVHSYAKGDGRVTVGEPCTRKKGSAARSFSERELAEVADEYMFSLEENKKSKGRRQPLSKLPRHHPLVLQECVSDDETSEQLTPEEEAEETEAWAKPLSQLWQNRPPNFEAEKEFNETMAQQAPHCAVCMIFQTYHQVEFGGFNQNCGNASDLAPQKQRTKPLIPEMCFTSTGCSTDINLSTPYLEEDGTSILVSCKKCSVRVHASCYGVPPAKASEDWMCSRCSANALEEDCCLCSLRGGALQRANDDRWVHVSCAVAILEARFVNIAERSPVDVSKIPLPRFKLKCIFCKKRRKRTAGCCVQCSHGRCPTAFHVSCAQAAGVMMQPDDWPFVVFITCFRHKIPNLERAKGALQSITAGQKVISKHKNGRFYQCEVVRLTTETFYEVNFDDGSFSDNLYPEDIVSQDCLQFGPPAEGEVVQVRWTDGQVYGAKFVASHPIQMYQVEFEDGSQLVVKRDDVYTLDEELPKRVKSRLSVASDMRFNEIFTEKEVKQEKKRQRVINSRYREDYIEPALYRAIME
Assay: qHTS Assay for Inhibitors of JMJD2A-Tudor Domain; further: nearly all actives have a fitted effect of over 50% in size
Conditions: AlphaScreen JMJD2A-Tudor / H3K4me3 peptide binding; activity change, negative = inhibition: at 114 µM (top of the series)
On the % scale 0 is the no-effect control and ±100 the full control effect; potency means the concentration at half of the fitted maximal effect; tags describe the fitted curve by direction and shape.

Potency, active:
C=CC1=C(C(=O)O)N2C(=O)[C@@H](NC(=O)/C(=N/OCC(=O)O)c3csc(N)n3)[C@H]2SC1 25.1 µM
C(=N\N1CCN(C(c2ccccc2)c2ccccc2)CC1)/c1ccc2c(c1)OCO2 22.4 µM
Cc1ccc(C2(C)NC(=O)N(CC(=O)Nc3nc(-c4ccccn4)cs3)C2=O)cc1 (configuration not stated) 39.8 µM
Cc1ccc(-c2csc(Nc3ccc(S(N)(=O)=O)cc3)n2)o1 56.2 µM
C=CCOc1ccccc1CN1CCCN(C)CC1 10 µM
COc1cc(C(C)=O)ccc1OCCN1CCC(Cc2ccccc2)CC1 1.58 µM
O=[N+]([O-])c1ccc(N/N=C2/CCCCC2c2ccccn2)cc1 (configuration not stated) 15.8 µM
CC(C)(C)c1nn(-c2ccccc2)c2[nH]c(=O)c(CNc3ccc4c(c3)OCCO4)cc12 39.8 µM
O=C(Nc1ccc(N2CCCCC2)cc1)c1ccc([N+](=O)[O-])o1 11.2 µM
CCN(CC)c1ccc(NC(=O)COC(=O)C2CCN(c3ccc(C(F)(F)F)cn3)CC2)cc1 15.8 µM
CC(C)CC1=NN(C(=O)c2ccncc2)C(O)(C(F)(F)F)C1 (configuration not stated) 39.8 µM
Cc1[nH]c2ccccc2c1CN1CCc2ccccc2C1 39.8 µM
CN(Cc1ccccc1)C(=S)Nc1cccnc1 56.2 µM
C=CCn1c(-c2ccc(OC)c(OC)c2)n[nH]c1=S 25.1 µM
O=S(=O)(c1ccc(NC(=S)NN=C2CCCCC2)cc1)N1CCOCC1 28.2 µM

Potency, inconclusive:
Cc1cc(C)n(-c2cc(N3CCN(C(=O)c4ccc(C(C)(C)C)cc4)CC3)ccc2[N+](=O)[O-])n1 44.7 µM [inhibitor, partial curve]
c1ccc(N2CCN(c3ccccc3)C2c2cccnc2)cc1 79.4 µM [inhibitor, partial curve]
O=C(CNc1cccc2ccccc12)N/N=C/c1cccc(Oc2ccccc2)c1 28.2 µM [inhibitor, full curve]
O=C(Nc1ccc(S(=O)(=O)Nc2nccs2)cc1)c1cc(-c2ccccn2)nc2ccccc12 56.2 µM [inhibitor, partial curve]
CCOC(=O)c1c(NC(=O)CSc2c[nH]c3ccccc23)sc2c1CCC2 28.2 µM [inhibitor, full curve]
O=C(O)C1Cc2ccccc2CN1C(=O)CCl (configuration not stated) 31.6 µM [inhibitor, single point]
O=c1cc(O)c2c(=O)n(-c3ccccc3)c3ccccc3c2o1 5.62 µM [inhibitor, single point]
CCOc1ccccc1N(CC(=O)NCCSCc1ccco1)S(=O)(=O)c1ccccc1 50.1 µM [inhibitor, partial curve]
Cc1ccc(S(=O)(=O)Cc2ccc(C(=O)N3CCN(c4cccc(C)c4C)CC3)o2)cc1 56.2 µM [inhibitor, partial curve]
Cc1ccccc1NC(=O)C1c2cccc[n+]2CC(=O)N1Cc1ccc2c(c1)OCO2 (configuration not stated) 12.6 µM [inhibitor, full curve, poor fit]
O=[N+]([O-])c1cc(/C=N/O)ccc1Oc1cccc(Cl)c1 17.8 µM [inhibitor, partial curve]
Cc1ccc(NC(=O)C2CCCN(c3nnc(C)c4c(C)n(-c5ccccc5)nc34)C2)c(Cl)c1 (configuration not stated) 63.1 µM [inhibitor, partial curve, poor fit]
Cc1ccc(/C=C2\SC(=S)N(NS(=O)(=O)c3ccc(C)cc3)C2=O)cc1 50.1 µM [inhibitor, partial curve]
CN1CCN/C1=C(/C(Cl)=C(Cl)Cl)[N+](=O)[O-] 39.8 µM [inhibitor, single point]
CCCOc1ccccc1C1CC(=O)Nc2cc3c(cc21)OCO3 (configuration not stated) 56.2 µM [inhibitor, partial curve]
COc1cccc(-c2sc3ccc(OC)cc3c2-c2ccc(OCCN3CCOCC3)cc2)c1 39.8 µM [inhibitor, partial curve]
CN(C)c1ccc(/C=C2\CCC/C(=C\c3ccccc3)C2=O)cc1 20 µM [inhibitor, full curve]
Nc1nc(Nc2ccc(Cl)cc2)c(NC=O)c(=O)[nH]1 50.1 µM [inhibitor, partial curve]
COc1ccc(/C=N/NC(N)=S)cc1OC(=O)c1ccccc1 89.1 µM [inhibitor, partial curve]
O=C(Nc1ccccn1)C(F)(F)C(F)(F)C(F)(F)C(F)(F)C(=O)Nc1ccccn1 28.2 µM [inhibitor, full curve]
COc1ccc(OCC(=O)N2CCN(c3nnc(-c4ccc(C)cc4)c4ccccc34)CC2)cc1 25.1 µM [inhibitor, partial curve]
CCOC(=O)C1CCN(C(c2cccnc2)c2c(NC(=O)c3ccco3)sc(C)c2C)CC1 (configuration not stated) 50.1 µM [inhibitor, partial curve]
COc1ccc(N(C)C(=O)c2cc3c(s2)-c2ccccc2OC3)c(OC)c1 31.6 µM [inhibitor, full curve]
Cc1ccc(Nc2nnc(SCC(=O)c3cc4ccccc4o3)s2)cc1C 56.2 µM [inhibitor, partial curve]
CCOC(=O)c1c2n(c3c(NCc4ccccc4)ncnc13)CCCC2 89.1 µM [inhibitor, single point]
O=C(O)COc1ccccc1/C=N/NC(=O)c1cc(-c2ccccc2)nc2ccccc12 14.1 µM [inhibitor, single point]
COc1ccc(Nc2cc(C(=O)NCCCN(C)C3CCCCC3)c3ccccc3n2)cc1 11.2 µM [inhibitor, full curve]
COc1cc(C(CCN2CCCC2)c2c(OC)cc(OC)c3c(-c4ccccc4)cc(=O)oc23)cc(OC)c1OC (configuration not stated) 56.2 µM [inhibitor, partial curve]
COc1cc(C(=O)Nc2ccccc2SCc2cc(=O)n3nc(C)sc3n2)cc(OC)c1OC 31.6 µM [inhibitor, single point]
c1ccn(-c2ccc(-c3ccn[nH]3)cc2)c1 56.2 µM [inhibitor, partial curve]
COc1ccc(CCCc2nnc(SCC(=O)Nc3ccc(Cl)cc3)o2)cc1 31.6 µM [inhibitor, single point]
Cc1oc2ncnc(N3CCCCC3)c2c1C(=O)Nc1cccc(F)c1 89.1 µM [inhibitor, single point]
COc1ccc(N2CCN(CC(=O)NCc3ccc(Cl)cc3)CC2)cc1 15.8 µM [inhibitor, full curve, poor fit]
COC(=O)c1ccc(NC(=O)c2c(NCc3ccc(OC)c(OC)c3)sc3c2CCCC3)cc1 50.1 µM [inhibitor, partial curve]
C/C(=N\NC(=S)NC1CCCCC1)c1ccc(OC(F)F)cc1OC(F)F 56.2 µM [inhibitor, partial curve, poor fit]
O=C(CSc1ccc2nnc(-c3ccccn3)n2n1)Nc1ccc(F)cc1F 39.8 µM [inhibitor, partial curve]
O=C1CC(NCc2ccncc2)C(=O)N1c1ccccc1 (configuration not stated) 89.1 µM [inhibitor, single point]

Activity change, negative = inhibition, inactive:
COc1cc(-c2noc(-c3ccc(N4CCN(C)CC4)c([N+](=O)[O-])c3)n2)cc(OC)c1OC -9.93%
CN(C)S(=O)(=O)c1cccc(COC(=O)CCNC(=O)c2ccc([N+](=O)[O-])cc2)c1 -5.16%
COc1ccc(C(=O)OCc2cc(=O)n3nc(-c4cccs4)sc3n2)cc1 -28.3%
COc1ccc(CNC(=O)C2=CCN(S(=O)(=O)c3ccc(C)cc3)CC2)cc1 -7.88%
Cc1ccc(CNC(=O)Cc2c(C)c3cc4c(C)coc4cc3oc2=O)cc1 -4.09%
CCS(=O)(=O)N1CCC(C(=O)NCc2cccnc2)CC1 -13.4%
O=C(O)c1cccc(-c2ccc(/C=N/NC(=O)C3COc4ccccc4O3)o2)c1 (configuration not stated) -15.8%
COc1ccccc1CN1CC(C(=O)NCCn2ccc(C)n2)CCC1=O (configuration not stated) -1.39%
CCOc1ccc(-c2nnc(SCC(=O)NCCc3ccccc3)nc2-c2ccc(OCC)c(OC)c2)cc1OC -19.7%
Cc1ccc(S(=O)(=O)N2CCCCC2)cc1NS(=O)(=O)c1ccccc1F -21.4%
CCOc1ccccc1C1Nc2ccccc2-c2nnc(SCc3ccccc3)nc2O1 (configuration not stated) -9.69%
COc1ccc(S(=O)(=O)N2N=C(c3ccc(NS(C)(=O)=O)cc3)CC2c2ccco2)cc1 (configuration not stated) -30.9%
Cc1ccc(NC(=O)/C=C\C(=O)O)c([N+](=O)[O-])c1 -2.13%
Cc1ccc(C(=O)Nc2ccc(N3CCN(S(C)(=O)=O)CC3)cc2)cc1C -10.5%
COc1ccc(-c2cc(-c3ccc(F)cc3)nc3c2COc2ccccc2-3)cc1 13.4%
O=S(=O)(NC(=S)NC1CCCCC1)c1ccc(Br)cc1 -26.5%
O=S(=O)(Nc1cc(Br)cc2cccnc12)c1ccccc1 -19.9%
COCCn1c(CNC(=O)c2cc(OC)c(OC)c(OC)c2)nc2cccnc21 -10%
CCOC(=O)CSc1snnc1C -0.741%
Cc1ccc(S(=O)(=O)NC(=O)c2ccc(Br)o2)cc1 -20%
